20 variants from the RNAGym collection of RNA variant scans (doi:10.7554/elife.90254) can be followed below.

B1: OR4K15 (parent)
chain: GUUAACGGUCAUAGGCCAUGGAAACUAGGAGCACCAUUUCGCUGCCAGUGAAGAAAUGAACAAAGAAAAUCUGGGCCAGGCAGGCAUCAAAAGAAAUAGUCUUGCGCUCAACCAGAAAGUCUGUAAUCAUUUUAAGGGUA

The source gives no read counts; variants with many changes may rest on few reads.

This data set covers variants of B1. Briefly: self-cleavage, relative activity (ratio to wild type); higher = more cleavage; in vitro, sequencing; the parent is a self-cleaving ribozyme.
In the case of GUUAACGGUCAUAGGCCAUGGAAACUAGGGGCACCAUUUCGCUGCCAGUGAAGAAAUGAACAAAGAAAAUCUGGGCCAGGCAGGCAUCAAAAGAAAUAGUCUUGCGCUCAACCAGAAAGUCUGUAAUCAUCUUAAGAGUA [A30G U131C G137A], the self-cleavage turned out to be 0.91.
For GUUAACGGUCAUAGGCCAUGGAAACUAGGGGCACCAUUUCGCUGCCAGUGAAGAAAUGAACAAAGAAAAUCUGGGCCAGGCAGGCAUCAAAAGAAAUAGUCCUGCGCUCAACCAGAGAGUCUGUAAUCAUUUUAAGGGUA [A30G U102C A117G] the value was 1.62.
For GUUAACGGUCAUAGGCCAUGGAAACUAGGUGCACCAUUUCGCUGCCAGUGAAGAAAUGAACAAAGAAAAUCUGGGCCAGGCAGGCAUCAAAAGAGAUAGUCUUGCACUCAACCAGAAAGUCUGUAAUCAUUUUAAGGGUA [A30U A95G G106A], the self-cleavage was determined as 0.
As for GUUAACGGUCAUAGGCCAUGGAAACUAGGUGCACCAUUUCGCUGCCAGUGAAGAAAUGAACAAAGAAAAUCUGGGCCAGGCCGGCAUCAAAAGAAAUAGUCUUGCGCUCAACCAGAAAGUCUGUAAUCAUUUUAAGGGUG [A30U A82C A140G], the self-cleavage is 0.06.
As for GUUAACGGUCAUAGGCCAUGGAAACUAGGUGCGCCAUUUCGCUGCCAGUGAAGAAAUGAACAAAGAAAAUCUGGGCCAGGCAGGCAUCAAAAGAAAUAGUCUUGCGCUCAACCAGAAAGUCAGUAAUCAUUUUAAGGGUA [A30U A33G U122A], the self-cleavage is 1.2.
For the variant GUUAACGGUCAUAGGCCAUGGAAACUAGGUGCACCAUUUCGCUGCCAGUGAAGAAGUGAACAAAGAAAAUCAGGGCCCGGCAGGCAUCAAAAGAAAUAGUCUUGCGCUCAACCAGAAAGUCUGUAAUCAUUUUAAGGGUA [A30U A56G U72A A78C], the self-cleavage was found to be 0.33.
For the variant GUUAACGGUCAUAGGCCAUGGAAACUAGGGGCACCAUUUCGCCGCCAGUGAAGAAAUGAACAAAGAAAAUCUGAGCCAGGCGGGCAUCAAAAGAAAUAGUCUUGCGCUCAACCAGAAAGUCUGUAAUCAUUUUAAGGGUA [A30G U43C G74A A82G], the self-cleavage amounted to 0.36.
With GUUAACGGUCAUAGGCCAUGGAAACUAGGUGCACCAUUUCGCUGCCAGUGGAGAAAUGAACAAAGAAAAUCUGGGCCAGGCAGGCAUCAAAAGAAGUAGUCUUGCGCUCAACCAGAAAGUCUGUAAUCAUUUUAAGGGUA [A30U A51G A96G], the self-cleavage was found to be 1.54.
Consider GUUAACGGUCAUAGGCCAUGGAAACUAGGUGCACCAUUUCGCUGCCGGUGAAGAAAUGAACAAAGAAAAUCUGGGCCAGGCAGGCAUCAAAAGAAAUAGUCUUGCGCUCAACCAGAAAGUCUGUAAUCAUCUUAAGGGUA [A30U A47G U131C], for which the self-cleavage is 0.96.
GUUAACGGUCAUAGGCCAUGGAAACUAGGGGCACCAUUUCGCUGCCAGUGAAGAAAUGAACAAAGAAAAUCUGGGCCAGGCAGGCAUCAAAAGAAAUAGUCUCGCGCUCAACCAGGAAGUCUGUAAUCAUUUUAAGGGUA [A30G U103C A116G]: the self-cleavage is 0.4.
GUUAACGGUCAUAGGCCAUGGAAACUAGGUGCACCAUUUCGCUGCCAGUGAAGAAAUGAACAAAGAAAGUCUGGGCCAGGCGGGCAUCAAAAGAAAUAGUCUUGCGCUCAACCAGAAAGUCUGUAAUCAUUUUAAGGGUA [A30U A69G A82G]: the self-cleavage stood at 0.49.
As to GUUAACGGUCAUAGGCCAUGGAAACUAGGUGCACCAUUUCGCUGCCAGUGAAGAAAUGAACAAGGAAAAUCUGGGCCAGGCAGGCAUAAAAAGAAAUAGUCUUGCGCUCAACCAGAAAGUCUGUAAUCAUUUAAAGGGUA [A30U A64G C88A U133A], the self-cleavage worked out at 1.21.
To GUUAACGGUCAUAGGCCAUGGAAACUAGGGGCACCAUUUCGCUGCCAGUGAAGAAACGAACAAAGAAAAUCUGGGCCAGGCGGGCAUCAAAAGAAAUAGUCUUGCGCUCAACCAGAAAGUCUGUAAUCAUUUUAAGGGUA [A30G U57C A82G] belongs 0.34.
For GUUAACGGUCAUAGGCCAUGGAAACUAGGGGCACCAUUUCGCCGCCAGUGAAGAAAUGUACAAAGAAAAUCUGGGCCAGGCAGGCAUCAAAAGAAAUAGUCUUGCGCUCAACCAGAAAGCCUGUAAUCAUUUUAAGGGUA [A30G U43C A59U U120C] the value was 1.12.
For GUUAACGGUCAUAGGCCAUGGAAACUAGGUGCACCAUUUCGCUGCCAGUGAAGAAAUGAACAUAGAAAAUCUGGGCCAAGCAGGCAUCAAAAGAAAUAGUCUUGCGCUCGACCAGAAAGUCUGUAAUCGUUUUAAGGGUA [A30U A63U G79A A110G A129G] the value was 0.01.
Turning to GUUAACGGUCAUAGGCCAUGGAAACUAGGGGCACCAUUUCGCAGCCAGUGAAGAAAUGAACAAAGAAAAUCUGGGCCAGGCAGGCAUCAAAAGAAAUAGUCUUGCGCUCAACCAGAAAGUCAGUAAUCAUUUUAAAGGUA [A30G U43A U122A G136A], the self-cleavage was 1.79.
Consider GUUAACGGUCAUAGGCCAUGGAAACUAGGUGCACCGUUUCGCUGCCAGUGAAGAAAUGAACAAAGAAAAUCUGGGCCAGGCAGGCAUCAAAAGAAAUAGUCUUGCGCUCAACCAGAGAGUCUGUAAUCAUUAUAAGGGUA [A30U A36G A117G U132A], for which the self-cleavage is 0.82.
For GUUAACGGUCAUAGGCCAUGGAAACUAGGGGCACCAUUUCGCUGCCAGUGAAGAAAUGAACAAAGAAAAUCUGGGCCAGGCAGGCAUCAAAAGAAAUAGUCAUGCGCUCAACCAGGAAGUCUGUAAUCAUUUUAAGGGUA [A30G U102A A116G] the value was 0.23; for GUUAACGGUCAUAGGCCAUGGAAACUAGGUGCACCAUUUCGCUGCCAGUGAAGAAAUGAACAAAGAAAGUCUGAGCCAGGCAGGCAUCAAAAGAAAUAGUCUUGCGCUCAACCAGAAAGUCUGUAACCAUUUUAAGGGUA [A30U A69G G74A U127C], 0.07.
With GUUAACGGUCAUAGGCCAUGGAAACUAGGUGCACCAUUUCGCUGCCAGUGAAGAAAUGAACAAAGAAAAUCUGGGCCAGGCAGGCAUCAAAAGAAUUAGUCUUGCGCUCAACCAGAAAGUCUGUAACCAUUUUAAGGGUA [A30U A96U U127C], the self-cleavage was found to be 1.22.
